# PubChem BioAssay AID624296 (National Center for Advancing Translational Sciences (NCATS), 2012)
# Out of some 350,000 compounds screened, about 9,900 (2.8%) were called active. Inconclusive means that the source gave no clear call. Such entries were picked first, then a sample of the others. Calls follow the shape of the dose curve; as a rule, active = well fitted activation curve with a large enough effect; inconclusive = small, poorly fitted or top-dose-only effect; inactive = no such curve, though single readings can be large or run the other way. Potencies of inconclusive entries are left out as doubtful fits.
# Test: A quantitative high throughput screen for small molecules that induce DNA re-replication in MCF 10a normal breast cells. Also: nearly all actives have a fitted effect of over 50% in size.
# Details: MCF 10A DNA re-replication, Hoechst nuclear intensity, 48 h; series mostly up to 46.1 µM
# Potency is read from the fitted curve at half-maximal effect; tags tell the direction and shape of the fitted curve.
row,SMILES,Potency
1,O=C(Nc1ccc(S(=O)(=O)N2CCOCC2)cc1)c1cc(-c2ccccc2O)n[nH]1,inactive
2,Cn1nnnc1Sc1ncnc2scc(Br)c12,active: 3.66 µM
3,CCOc1ccc(C(=O)NCc2ccc3c(c2)OCO3)cc1OCC,inactive
4,CCN(CC)c1ccc(NC(=O)C(C)C)cc1,inactive
5,CC(=O)c1ccc(S(=O)(=O)Nc2cccc(-c3ccc(N4CCOCC4)nn3)c2)cc1,"inconclusive [activator, partial curve, poor fit]"
6,Cc1ccc(-c2cc(C(=O)NCc3cnn(C)c3C)c3cc(Br)ccc3n2)cc1,"inconclusive [activator, single point]"
7,CC1(C)OC2C(CO)OC(n3cnc4c(=S)nc[nH]c43)C2O1 (stereo not given),"inconclusive [activator, partial curve, poor fit]"
8,Brc1ccc(CSc2nnc(-c3cnccn3)n2Cc2ccco2)cc1,"inconclusive [activator, single point]"
9,Cc1ccc(NC(=O)c2cc(C(C)(C)C)nn2Cc2ccccc2)cc1,"inconclusive [activator, partial curve, poor fit]"
10,O=C(Cc1cccs1)Nc1ccc2c(c1)C(=O)OC2,"inconclusive [activator, full curve, poor fit]"
11,O=C(CCN1C(=O)/C(=C/c2ccccc2Cl)SC1=S)N1CCCC1,"inconclusive [activator, single point]"
12,COc1ccc(NC(=O)CC2C(=O)N(c3cccc(OC)c3)C(=O)N2C2CCCCC2)cc1 (stereo not given),inactive
13,Cc1ccc(NC(=O)CNC(=O)C2CCCCC2)nc1,"inconclusive [activator, partial curve, poor fit]"
14,CC(C)CN(C(=O)COC(=O)CSc1ccc([N+](=O)[O-])cc1)C1CCS(=O)(=O)C1 (stereo not given),inactive
15,Cc1ccc(CNC(=O)C2CC(c3ccccc3[N+](=O)[O-])=NO2)cc1 (stereo not given),"inconclusive [activator, full curve]"
16,Cn1cnc([N+](=O)[O-])c1S(=O)(=O)Nc1ccccc1,"inconclusive [activator, single point]"
17,Cc1ccc2c(CC(=O)NC3=NCCS3)coc2c1,"inconclusive [activator, partial curve, poor fit]"
18,CCOC(=O)[C@H]1[C@H]2COc3ccc(C)cc3[C@@H]2N2C(=O)CN(Cc3ccc(Cl)cc3)C(=O)[C@@]12C,"inconclusive [activator, full curve]"
19,c1ccc(CCn2nnnc2CN2CCCc3ccccc32)cc1,"inconclusive [activator, single point]"
20,CCOC(=O)C1=C(CSc2nc(CC)c(C)cc2C#N)OC(N)=C(C#N)C1c1ccc(OC)cc1 (stereo not given),"inconclusive [activator, single point]"

row,SMILES,Potency
1,CN(C)CCCN(C(=O)/C=C/c1cccs1)c1nc2c(F)cccc2s1,active: 25.9 µM
2,CC(C)(C)c1ccc(Oc2ncccc2NC(=O)c2cccs2)cc1,"inconclusive [activator, partial curve, poor fit]"
3,c1ccc(Cn2c(CNc3nc4ccccc4n3CCN3CCCCC3)nc3ccccc32)cc1,"inconclusive [activator, single point]"
4,CCOc1ccccc1NC(=O)COC(=O)Cc1cccs1,"inconclusive [activator, partial curve, poor fit]"
5,Cc1ccc2c(c1)cc(CN(Cc1cccs1)C(=O)c1ccco1)c1nnnn12,"inconclusive [activator, partial curve, poor fit]"
6,CS(=O)(=O)c1ccc(Cl)c(NC(=O)COC(=O)c2ccc(F)cc2Cl)c1,inactive
7,Cc1c(NC(=O)c2ccccc2F)c(=O)n(-c2ccccc2)n1C,"inconclusive [activator, full curve, poor fit]"
8,CC(C)N(C(=O)[C@H]1C[C@H](CC(=O)NC(C)(C)C)C(=O)N2CCc3c([nH]c4ccc(Cl)cc34)[C@]12C)C(C)C,"inconclusive [activator, partial curve, poor fit]"
9,NC(=O)CSc1nc2c(c(=O)n1-c1ccccc1)C1(CCCCC1)Cc1ccccc1-2,"inconclusive [activator, single point]"
10,CCOC(=O)N/N=C/c1ccc(N(CC)CC)cc1O,active: 23.1 µM
11,CCOc1ccc(C(=O)NC(C(=O)NCCc2ccc(OC(F)F)cc2)C(C)C)cc1 (stereo not given),"inconclusive [activator, single point]"
12,O=C(COC(=O)c1cn(-c2ccccc2)nc1-c1ccccc1)Nc1ncc(Cl)cc1Cl,"inconclusive [activator, single point]"
13,CCOc1ccc2oc(C(=O)NCC(c3ccco3)N(C)C)c(C)c2c1 (stereo not given),"inconclusive [activator, partial curve, poor fit]"
14,CC1(C(=O)N/N=C/c2cc3c(cc2Br)OCO3)CC1(Br)Br (stereo not given),"inconclusive [activator, single point]"
15,CC12CCC(C(=O)N(CC(O)CN3CCN(Cc4ccccc4)CC3)C1=O)C2(C)C (stereo not given),"inconclusive [activator, partial curve, poor fit]"
16,COCCCNC(=O)c1cc(-c2cccnc2)nc2ccccc12,inactive
17,O=C(NC1CCCCCC1)c1cccnc1Sc1ccccc1,"inconclusive [activator, partial curve, poor fit]"
18,CCOC(=O)c1c(C)noc1CP(=O)(c1ccccc1)c1ccccc1,"inconclusive [activator, single point]"
19,Cc1cc(C)cc(-n2nnc(C(=O)NCc3ccc4c(c3)OCO4)c2N)c1,"inconclusive [activator, partial curve, poor fit]"
20,C=C(C)c1cccc(C(C)(C)NC(=O)Nc2ccccc2OCC)c1,"inconclusive [activator, partial curve, poor fit]"
